Kd data for three molecules are collected here from paper PMC8996997 (2022).

The Kd is the constant that tells how readily two partners part at equilibrium. The low end stands for a tighter complex, the high end for a looser complex.

Sequences and labels used below:
B1: His×6-YY1([…]) (domain or fragment)
chain: not shown
B2: His×6-YY1([…]) (domain or fragment)
chain: QEVILVQTREEVVGGDDSDGLRAEDGFEDQILIPVPAPAGGDDDYIEQTLVTVAAAGKSGGGGSSSSGGGRVKKGGGKKSGKKSYLSGGAGAAGGGGADP[about 20 residues left out here]
B3: His×6-YY1([…]) (domain or fragment)
chain: MASGDTLYIATDGSEMPAEIVELHEIEVETIPVETIETTVVGEEEEEDDDDEDGGGGDHGGGGGHGHAGHHHHHHHHHHHPPMIALQPLVTDDPTQVHHHQEVILVQTREEVVGGDDSDGLRAEDGFEDQILIPVPAPAGGDDDYIEQTLVTVAAAGKSGGGGSSSSGGGRVKKGGGKKSGKKSYLSGGAGAAGGGGADP[about 20 residues left out here]

The target in the assay is His×6-YY1(wt) (human, UniProt P25490). As to the kind of experiment: SPR.
On to B1, for which binding was characterised by a dissociation constant (Kd) of 147 nM. In other words, the sub-micromolar range.

Consider B2, for which the Kd was determined as 563 nM. Compared with the last molecule, the Kd is about 3.8-fold higher.

The molecule B3 had a Kd of 193 nM. Against the preceding molecule, the Kd is about 2.9-fold lower.
